# Laboratory results published in patent US20250064779A1, “COMPOSITIONS AND METHODS FOR THE TREATMENT OF DEPRESSION” (Janssen Pharmaceuticals, Inc., priority 2022, published 2025).
# Tests used:
# [1] = tested on: subjects with MDD who have had an inadequate response to SSRI/SNRI treatment; experiment: SMDDS total score, Example 1; assay type: in vivo, human; details: Treatment Week 6; aticaprant 10 mg; 59 subjects analyzed
# Text: SMDDS is a subjective rating of the patient. The SMDDS is a 16-item PRO measure. Each item is rated by the subject according to a 5-point Likert scale. Subjects respond to each question using a rating scale between 0 (“Not at all” or “Never”) to 4 (“Extremely” or “Always”). The total score ranges from 0 to 60. The SMDDS uses a 7-day recall period and verbal rating scales. Higher score indicates more severe depressive symptomatology.
# • (i) Depression: Montgomery-Åsberg Depression Rating Scale (MADRS), Clinical Global Impression-Severity (CGI-S), Symptoms of Major Depressive Disorder Scale (SMDDS), and Self-assessment of treatment experience (SATE) • (ii) Anhedonia: Snaith-Hamilton Pleasure Scale (SHAPS) • (iii) Anxiety: Structured Interview Guide for the Hamilton Anxiety scale (SIGH-A) and HAM-A6 • (iv) Effects on Cognition: The Cognitive and Physical Functioning Questionnaire (CPFQ) • (v) Safety Assessments: Standard safety assessments including physical and neurological examination, vital signs, 12-lead ECG, clinical chemistry, hematology, and urinalysis was performed. […]
# [2] = tested on: subjects with MDD who have had an inadequate response to SSRI/SNRI treatment; experiment: SHAPS total score (anhedonia), Example 1; assay type: in vivo, human; details: for SHAPS Total Score: Mean (SD) / SHAPS Total Score: Mean Change to Placebo (SD pooled): 10 mg adjunctive to SSRI/SNRI; for SHAPS Total Score: Change from Baseline LSMean (SE) / SHAPS Total Score: LSMean Difference (SE) Treatment-Placebo: MMRM; for SHAPS Total Score: Effect Size: vs placebo, negative favors aticaprant
# Text: To assess a potential effect on anhedonia, an anhedonia scale may be used. For example, the Snaith-Hamilton Pleasure Scale (SHAPS) analysis is a validated scale for the measurement of anhedonia. The SHAPS is a subject completed scale in which subjects score whether or not they experience pleasure in performing a list of activities or experiences. The SHAPS is a self-reported 14-item instrument, developed for the assessment of hedonic capacity. Subjects score whether they experience pleasure in performing a list of activities or experiences. Subjects can rate the answers as 1-4 where 1 indicates “Definitely agree”, 2 indicates “Agree”, 3 indicates “Disagree” and 4 indicates “Definitely disagree”. The subject's item responses are summed to provide a total score ranging from 14 to 56. A higher total SHAPS score indicates higher levels of current anhedonia. Physician/clinical judgment can be used to assess anhedonia separately or in conjunction with an anhedonia scale.
# In some embodiments, the patient has anhedonia. In some embodiments, the patient has moderate anhedonia. In other embodiments, the patient has severe anhedonia. An assessment of moderate or severe anhedonia is typically determined physician/clinical judgment and/or by one or more tests that provide insight into whether a patient has anhedonia. For example, the severity of the anhedonia may be determined using the SHAPS method. In some embodiments, a patient with moderate or severe anhedonia is considered to have a high level of anhedonia. For example, a patient with a SHAPS score of 38 or greater is considered to have moderate to severe anhedonia that can be considered a high level of anhedonia. In some embodiments, a high level of anhedonia is reflected by a SHAPS score of at least about 40, about 42, about 44, about 46, about 48, about 50, about 52, about 54, about 56, about 58, or higher. A patient with mild or no anhedonia would be considered to have a low level of anhedonia that is assessed by physician/clinical judgment and/or one or more tests. For example, a patient with a SHAPS score of less than 38 is considered to have low anhedonia. In certain embodiments, a patient with mild anhedonia may have a SHAPS score of 20 to less than 38, for example, a SHAPS score of 20 to about 36, about 22 to about 36, about 24 to about 36, about 26 to about 36, about 26 to about 34, about 26 to about 32, about 26 to about 30, about 26 to about 28, about 28 to about 36, about 28 to about 36, about 30, to about 36, about 32 to about 36, about 34 to about 36, about 20 to about 34, about 22 to about 34, about 24 to about 34, about 26 to about 32, about 26 to about 30, about 26 to about 28, about 28 to about 36, about 28 to about 34, about 28 to about 32, about 28 to about 30, about 30 to about 36, about 30 to about 34, about 30 to about 32, about 32 to about 36, about 32 to about 34, or about 34 to about 36. Typically, a SHAPS score of less than 20 can be considered to correspond to normal hedonic functioning, and for purposes of this disclosure, would fall into the low category of anhedonia, e.g., a SHAPS score of less than 38.
# [3] = Treatment Week 6, eITT, N 59, number of subjects (%)
# [4] = Treatment Week 6, fITT, N 77, number of subjects (%)
smiles,measurement,setting,value
"Cc1cc(C)cc(C2CCCN2Cc2ccc(Oc3ccc(C(N)=O)cc3F)cc2)c1 (stereo not shown) [aticaprant, 3-fluoro-4-4-2-(3,5-dimethylphenyl)pyrrolidin-1-yl-methylphenoxybenzamide]","Change from Treatment Baseline in SMDDS Total Score, Arithmetic Mean (SD)",[1],−8.03 ± 9.957 Scores on a scale
same,Frequency of subjects with High Level of Anhedonia (SHAPS Total Score >= 38),[2]; [3],8 (13.56%)
same,Frequency of subjects with Low Level of Anhedonia (20 <= SHAPS Total Score < 38),[2]; [3],48 (81.36%)
same,Frequency of subjects with No Anhedonia (SHAPS Total Score <20),[2]; [3],3 (5.08%)
same,Frequency of subjects with High Level of Anhedonia (SHAPS Total Score >= 38),[2]; [4],8 (10.39%)
same,Frequency of subjects with Low Level of Anhedonia (20 >= SHAPS Total Score < 38),[2]; [4],62 (80.52%)
same,Frequency of subjects with No Anhedonia (SHAPS Total Score <20),[2]; [4],7 (9.09%)
same,SHAPS Total Score: Mean (SD),"[2]; eITT, Treatment Week 1",34.5
same,SHAPS Total Score: Mean Change to Placebo (SD pooled),"[2]; eITT, Treatment Week 1",−0.6 (3.77)
same,SHAPS Total Score: Change from Baseline LSMean (SE),"[2]; eITT, Treatment Week 1",−1.7
same,SHAPS Total Score: LSMean Difference (SE) Treatment-Placebo,"[2]; eITT, Treatment Week 1",−0.8
same,SHAPS Total Score: Effect Size,"[2]; eITT, Treatment Week 1",−0.15
same,SHAPS Total Score: Mean (SD),"[2]; eITT, Treatment Week 3",33.0
same,SHAPS Total Score: Mean Change to Placebo (SD pooled),"[2]; eITT, Treatment Week 3",−1.2 (4.96)
same,SHAPS Total Score: Change from Baseline LSMean (SE),"[2]; eITT, Treatment Week 3",−3.2
same,SHAPS Total Score: LSMean Difference (SE) Treatment-Placebo,"[2]; eITT, Treatment Week 3",−1.4
same,SHAPS Total Score: Effect Size,"[2]; eITT, Treatment Week 3",−0.25
same,SHAPS Total Score: Mean (SD),"[2]; eITT, Treatment Week 4",32.0
same,SHAPS Total Score: Mean Change to Placebo (SD pooled),"[2]; eITT, Treatment Week 4",−1.2 (5.21)
same,SHAPS Total Score: Change from Baseline LSMean (SE),"[2]; eITT, Treatment Week 4",−4.3
same,SHAPS Total Score: LSMean Difference (SE) Treatment-Placebo,"[2]; eITT, Treatment Week 4",−1.4
same,SHAPS Total Score: Effect Size,"[2]; eITT, Treatment Week 4",−0.23
same,SHAPS Total Score: Mean (SD),"[2]; eITT, Treatment Week 5",32.4
same,SHAPS Total Score: Mean Change to Placebo (SD pooled),"[2]; eITT, Treatment Week 5",−0.4 (5.49)
same,SHAPS Total Score: Change from Baseline LSMean (SE),"[2]; eITT, Treatment Week 5",−4.0
same,SHAPS Total Score: LSMean Difference (SE) Treatment-Placebo,"[2]; eITT, Treatment Week 5",−0.5
same,SHAPS Total Score: Effect Size,"[2]; eITT, Treatment Week 5",−0.08
same,SHAPS Total Score: Mean (SD),"[2]; eITT, Treatment Week 6",31.9
same,SHAPS Total Score: Mean Change to Placebo (SD pooled),"[2]; eITT, Treatment Week 6",−0.4 (5.66)
same,SHAPS Total Score: Change from Baseline LSMean (SE),"[2]; eITT, Treatment Week 6",−4.4
same,SHAPS Total Score: LSMean Difference (SE) Treatment-Placebo,"[2]; eITT, Treatment Week 6",−0.7
same,SHAPS Total Score: Mean (SD),"[2]; fITT, Treatment Week 1",32.9
same,SHAPS Total Score: Mean Change to Placebo (SD pooled),"[2]; fITT, Treatment Week 1",−0.6 (3.82)
same,SHAPS Total Score: Change from Baseline LSMean (SE),"[2]; fITT, Treatment Week 1",−1.9
same,SHAPS Total Score: LSMean Difference (SE) Treatment-Placebo,"[2]; fITT, Treatment Week 1",−1.0
same,SHAPS Total Score: Effect Size,"[2]; fITT, Treatment Week 1",−0.15
same,SHAPS Total Score: Mean (SD),"[2]; fITT, Treatment Week 3",31.9
same,SHAPS Total Score: Mean Change to Placebo (SD pooled),"[2]; fITT, Treatment Week 3",−1.0 (5.09)
same,SHAPS Total Score: Change from Baseline LSMean (SE),"[2]; fITT, Treatment Week 3",−3.1
same,SHAPS Total Score: LSMean Difference (SE) Treatment-Placebo,"[2]; fITT, Treatment Week 3",−1.4
same,SHAPS Total Score: Effect Size,"[2]; fITT, Treatment Week 3",−0.20
same,SHAPS Total Score: Mean (SD),"[2]; fITT, Treatment Week 4",30.8
same,SHAPS Total Score: Mean Change to Placebo (SD pooled),"[2]; fITT, Treatment Week 4",−1.2 (5.08)
same,SHAPS Total Score: Change from Baseline LSMean (SE),"[2]; fITT, Treatment Week 4",−4.1
same,SHAPS Total Score: LSMean Difference (SE) Treatment-Placebo,"[2]; fITT, Treatment Week 4",−1.6
same,SHAPS Total Score: Effect Size,"[2]; fITT, Treatment Week 4",−0.23
same,SHAPS Total Score: Mean (SD),"[2]; fITT, Treatment Week 5",30.9
same,SHAPS Total Score: Mean Change to Placebo (SD pooled),"[2]; fITT, Treatment Week 5",−0.5 (5.24)
same,SHAPS Total Score: Change from Baseline LSMean (SE),"[2]; fITT, Treatment Week 5",−4.1
same,SHAPS Total Score: LSMean Difference (SE) Treatment-Placebo,"[2]; fITT, Treatment Week 5",−0.8
same,SHAPS Total Score: Effect Size,"[2]; fITT, Treatment Week 5",−0.09
same,SHAPS Total Score: Mean (SD),"[2]; fITT, Treatment Week 6",30.5
same,SHAPS Total Score: Mean Change to Placebo (SD pooled),"[2]; fITT, Treatment Week 6",−0.5 (5.45)
same,SHAPS Total Score: Change from Baseline LSMean (SE),"[2]; fITT, Treatment Week 6",−4.5
same,SHAPS Total Score: LSMean Difference (SE) Treatment-Placebo,"[2]; fITT, Treatment Week 6",−0.8
